Test results published in US20240076343A1 (CEPHALON, published 2024).

T1: recombinant human CD25 extracellular domain, C-terminal poly-histidine tagged (human, UniProt P01589 22-240)
T1 construct: also called CD25/IL-2Rα; IL-2Rα
T1 sequence: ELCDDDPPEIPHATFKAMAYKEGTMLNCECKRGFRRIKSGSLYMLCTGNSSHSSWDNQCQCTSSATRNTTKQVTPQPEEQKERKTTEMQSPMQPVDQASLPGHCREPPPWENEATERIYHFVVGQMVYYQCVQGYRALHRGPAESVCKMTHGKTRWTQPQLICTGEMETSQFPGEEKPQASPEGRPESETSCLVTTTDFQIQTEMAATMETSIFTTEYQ

T2: recombinant human CD122 extracellular domain, C-terminal poly-histidine tagged (human, UniProt P14784 27-240)
T2 construct: also called CD122/IL-2Rβ; IL-2Rβ
T2 sequence: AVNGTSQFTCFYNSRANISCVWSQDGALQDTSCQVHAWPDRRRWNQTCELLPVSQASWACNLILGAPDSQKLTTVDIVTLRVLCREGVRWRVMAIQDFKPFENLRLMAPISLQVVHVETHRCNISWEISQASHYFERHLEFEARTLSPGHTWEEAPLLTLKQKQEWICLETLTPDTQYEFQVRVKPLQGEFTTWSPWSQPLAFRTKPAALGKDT


Tests used:
[1] = target: T1, recombinant human CD25 extracellular …; assay: BLI (Octet)
[2] = target: T2, recombinant human CD122 extracellular …; assay: BLI (Octet)

Kd [1] [nM] | koff [1] [s⁻¹] | kon [1] [M⁻¹ s⁻¹] | binding result [2] | binding result [1] | Kd [2] [nM] | koff [2] [s⁻¹] | kon [2] [M⁻¹ s⁻¹] | Binder
3.34 | 0.000162 | 48700 | no binding (tested: 300 nM) | – | – | – | – | 1H3-hIgG1-L6-hIL-2 (D20A/E95A/Q126D) (other, Built as m13) heavy: EVQLVESGGGLVQPGRSLKLSCAVSGFTFSDYAMAWVRQAPKKGLEWVATISYDGSRTYYRDSVKGRFTISRDNAKITLYLQMDSLRSEDTATYYCARHGSGYFDYWGQGVMVTVSS[not shown - human IgG1 constant region]SGGGGSAPTSSSTKKTQLQLEHLLLALQMILNGINNYKNPKLTRMLTFKFYMPKKATELKHLQCLEEELKPLEEVLNLAQSKNFHLRPRDLISNINVIVLALKGSETTFMCEYADETATIVEFLNRWITFCDSIISTLT light: DTVLTQSPALAVSPGERVTISCRASESVRTGVHWYQQKPGQQPKLLIYGASNLESGVPARFSGSGSGTDFTLTIDPVEADDTATYFCQQSWNDPFTFGSGTKLEIKRTVAAPSVFIFPPSDEQLKSGTASVVCLLNNFYPREAKVQWKVDNALQSGNSQESVTEQDSKDSTYSLSSTLTLSKADYEKHKVYACEVTHQGLSSPVTKSFNRGEC
1.57 | 0.000275 | 175000 | no binding (tested: 300 nM) | – | – | – | – | 1H3-hIgG1-L6-hIL-2 (D20F) (other, Built as m13) heavy: EVQLVESGGGLVQPGRSLKLSCAVSGFTFSDYAMAWVRQAPKKGLEWVATISYDGSRTYYRDSVKGRFTISRDNAKITLYLQMDSLRSEDTATYYCARHGSGYFDYWGQGVMVTVSS[not shown - about 450 residues with a human IgG1 Fc and changes] light: DTVLTQSPALAVSPGERVTISCRASESVRTGVHWYQQKPGQQPKLLIYGASNLESGVPARFSGSGSGTDFTLTIDPVEADDTATYFCQQSWNDPFTFGSGTKLEIKRTVAAPSVFIFPPSDEQLKSGTASVVCLLNNFYPREAKVQWKVDNALQSGNSQESVTEQDSKDSTYSLSSTLTLSKADYEKHKVYACEVTHQGLSSPVTKSFNRGEC
– | – | – | – | no binding (tested: 300 nM) | – | – | – | 1H3-hIgG1-L6-hIL-2 (E62K) (other, Built as m13) heavy: EVQLVESGGGLVQPGRSLKLSCAVSGFTFSDYAMAWVRQAPKKGLEWVATISYDGSRTYYRDSVKGRFTISRDNAKITLYLQMDSLRSEDTATYYCARHGSGYFDYWGQGVMVTVSS[not shown - about 450 residues with a human IgG1 Fc and changes] light: DTVLTQSPALAVSPGERVTISCRASESVRTGVHWYQQKPGQQPKLLIYGASNLESGVPARFSGSGSGTDFTLTIDPVEADDTATYFCQQSWNDPFTFGSGTKLEIKRTVAAPSVFIFPPSDEQLKSGTASVVCLLNNFYPREAKVQWKVDNALQSGNSQESVTEQDSKDSTYSLSSTLTLSKADYEKHKVYACEVTHQGLSSPVTKSFNRGEC
0.624 | 0.000109 | 174000 | no binding (tested: 300 nM) | – | – | – | – | 1H3-hIgG1-L6-hIL-2 (D20S) (other, Built as m13) heavy: EVQLVESGGGLVQPGRSLKLSCAVSGFTFSDYAMAWVRQAPKKGLEWVATISYDGSRTYYRDSVKGRFTISRDNAKITLYLQMDSLRSEDTATYYCARHGSGYFDYWGQGVMVTVSS[not shown - about 450 residues with a human IgG1 Fc and changes] light: DTVLTQSPALAVSPGERVTISCRASESVRTGVHWYQQKPGQQPKLLIYGASNLESGVPARFSGSGSGTDFTLTIDPVEADDTATYFCQQSWNDPFTFGSGTKLEIKRTVAAPSVFIFPPSDEQLKSGTASVVCLLNNFYPREAKVQWKVDNALQSGNSQESVTEQDSKDSTYSLSSTLTLSKADYEKHKVYACEVTHQGLSSPVTKSFNRGEC
1.01 | 0.00019 | 187000 | no binding (tested: 300 nM) | – | – | – | – | 1H3-hIgG1-L6-hIL-2 (D20W) (other, Built as m13) heavy: EVQLVESGGGLVQPGRSLKLSCAVSGFTFSDYAMAWVRQAPKKGLEWVATISYDGSRTYYRDSVKGRFTISRDNAKITLYLQMDSLRSEDTATYYCARHGSGYFDYWGQGVMVTVSS[not shown - about 450 residues with a human IgG1 Fc and changes] light: DTVLTQSPALAVSPGERVTISCRASESVRTGVHWYQQKPGQQPKLLIYGASNLESGVPARFSGSGSGTDFTLTIDPVEADDTATYFCQQSWNDPFTFGSGTKLEIKRTVAAPSVFIFPPSDEQLKSGTASVVCLLNNFYPREAKVQWKVDNALQSGNSQESVTEQDSKDSTYSLSSTLTLSKADYEKHKVYACEVTHQGLSSPVTKSFNRGEC
1.13 | 0.000212 | 188000 | no binding (tested: 300 nM) | – | – | – | – | 1H3-hIgG1-L6-hIL-2 (D20H) (other, Built as m13) heavy: EVQLVESGGGLVQPGRSLKLSCAVSGFTFSDYAMAWVRQAPKKGLEWVATISYDGSRTYYRDSVKGRFTISRDNAKITLYLQMDSLRSEDTATYYCARHGSGYFDYWGQGVMVTVSS[not shown - about 450 residues with a human IgG1 Fc and changes] light: DTVLTQSPALAVSPGERVTISCRASESVRTGVHWYQQKPGQQPKLLIYGASNLESGVPARFSGSGSGTDFTLTIDPVEADDTATYFCQQSWNDPFTFGSGTKLEIKRTVAAPSVFIFPPSDEQLKSGTASVVCLLNNFYPREAKVQWKVDNALQSGNSQESVTEQDSKDSTYSLSSTLTLSKADYEKHKVYACEVTHQGLSSPVTKSFNRGEC
– | – | – | – | – | 7.08 | 0.00156 | 220000 | 1H3-hIgG1-L6-hIL-2 (R81A) (other, Built as m13) heavy: EVQLVESGGGLVQPGRSLKLSCAVSGFTFSDYAMAWVRQAPKKGLEWVATISYDGSRTYYRDSVKGRFTISRDNAKITLYLQMDSLRSEDTATYYCARHGSGYFDYWGQGVMVTVSS[not shown - about 450 residues with a human IgG1 Fc and changes] light: DTVLTQSPALAVSPGERVTISCRASESVRTGVHWYQQKPGQQPKLLIYGASNLESGVPARFSGSGSGTDFTLTIDPVEADDTATYFCQQSWNDPFTFGSGTKLEIKRTVAAPSVFIFPPSDEQLKSGTASVVCLLNNFYPREAKVQWKVDNALQSGNSQESVTEQDSKDSTYSLSSTLTLSKADYEKHKVYACEVTHQGLSSPVTKSFNRGEC
1.16 | 0.000198 | 170000 | no binding (tested: 300 nM) | – | – | – | – | 1H3-hIgG1-L6-hIL-2 (D20I) (other, Built as m13) heavy: EVQLVESGGGLVQPGRSLKLSCAVSGFTFSDYAMAWVRQAPKKGLEWVATISYDGSRTYYRDSVKGRFTISRDNAKITLYLQMDSLRSEDTATYYCARHGSGYFDYWGQGVMVTVSS[not shown - about 450 residues with a human IgG1 Fc and changes] light: DTVLTQSPALAVSPGERVTISCRASESVRTGVHWYQQKPGQQPKLLIYGASNLESGVPARFSGSGSGTDFTLTIDPVEADDTATYFCQQSWNDPFTFGSGTKLEIKRTVAAPSVFIFPPSDEQLKSGTASVVCLLNNFYPREAKVQWKVDNALQSGNSQESVTEQDSKDSTYSLSSTLTLSKADYEKHKVYACEVTHQGLSSPVTKSFNRGEC
1.21 | 0.000175 | 144000 | no binding (tested: 300 nM) | – | – | – | – | 1H3-hIgG1-L6-hIL-2 (D20R) (other, Built as m13) heavy: EVQLVESGGGLVQPGRSLKLSCAVSGFTFSDYAMAWVRQAPKKGLEWVATISYDGSRTYYRDSVKGRFTISRDNAKITLYLQMDSLRSEDTATYYCARHGSGYFDYWGQGVMVTVSS[not shown - about 450 residues with a human IgG1 Fc and changes] light: DTVLTQSPALAVSPGERVTISCRASESVRTGVHWYQQKPGQQPKLLIYGASNLESGVPARFSGSGSGTDFTLTIDPVEADDTATYFCQQSWNDPFTFGSGTKLEIKRTVAAPSVFIFPPSDEQLKSGTASVVCLLNNFYPREAKVQWKVDNALQSGNSQESVTEQDSKDSTYSLSSTLTLSKADYEKHKVYACEVTHQGLSSPVTKSFNRGEC
– | – | – | – | no binding (tested: 300 nM) | – | – | – | 1H3-hIgG1-L6-hIL-2 (E62R) (other, Built as m13) heavy: EVQLVESGGGLVQPGRSLKLSCAVSGFTFSDYAMAWVRQAPKKGLEWVATISYDGSRTYYRDSVKGRFTISRDNAKITLYLQMDSLRSEDTATYYCARHGSGYFDYWGQGVMVTVSS[not shown - about 450 residues with a human IgG1 Fc and changes] light: DTVLTQSPALAVSPGERVTISCRASESVRTGVHWYQQKPGQQPKLLIYGASNLESGVPARFSGSGSGTDFTLTIDPVEADDTATYFCQQSWNDPFTFGSGTKLEIKRTVAAPSVFIFPPSDEQLKSGTASVVCLLNNFYPREAKVQWKVDNALQSGNSQESVTEQDSKDSTYSLSSTLTLSKADYEKHKVYACEVTHQGLSSPVTKSFNRGEC
– | – | – | – | – | 7.09 | 0.00234 | 331000 | 1H3-hIgG1-L6-hIL-2 (S87A) (other, Built as m13) heavy: EVQLVESGGGLVQPGRSLKLSCAVSGFTFSDYAMAWVRQAPKKGLEWVATISYDGSRTYYRDSVKGRFTISRDNAKITLYLQMDSLRSEDTATYYCARHGSGYFDYWGQGVMVTVSS[not shown - about 450 residues with a human IgG1 Fc and changes] light: DTVLTQSPALAVSPGERVTISCRASESVRTGVHWYQQKPGQQPKLLIYGASNLESGVPARFSGSGSGTDFTLTIDPVEADDTATYFCQQSWNDPFTFGSGTKLEIKRTVAAPSVFIFPPSDEQLKSGTASVVCLLNNFYPREAKVQWKVDNALQSGNSQESVTEQDSKDSTYSLSSTLTLSKADYEKHKVYACEVTHQGLSSPVTKSFNRGEC
